Measurements reported in article PMC12820563.
The list shows a part of the results. The list includes weakly bound sequences.

Molecular target: T1, MBP-FoxP3dN (UniProt Q99JB6)
T1 sequence: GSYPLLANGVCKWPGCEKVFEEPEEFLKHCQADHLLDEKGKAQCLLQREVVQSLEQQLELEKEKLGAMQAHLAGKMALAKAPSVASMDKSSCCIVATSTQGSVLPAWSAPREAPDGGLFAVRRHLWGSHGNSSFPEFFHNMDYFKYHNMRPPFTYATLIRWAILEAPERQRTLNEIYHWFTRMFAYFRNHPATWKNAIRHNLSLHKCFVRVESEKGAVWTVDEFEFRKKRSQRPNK
Assay: PD-seq (MBP pull-down with sequencing)
Details: 20 mM Tris-HCl pH 7.5, 100 mM NaCl, 1.5 mM MgCl2, 0.4 uM protein, 0.1 uM dsDNA library, 30 min, room temperature, amylose pull-down; high values mean tight binding; double strand, one strand shown

Row | Sequence | binding signal (RPM ratio (pull-down/input))
1 | GATGATTGTTCTCCCAGCTGATGAATTTCGGTGGTCGAGTAAACAAATTTTCCTAATCTTTCTGTTCAAGCGCCATCTAC | 0.448
2 | GATGATTGTTCTCCCAGCTGATGAATTTCAAAGCTCGAGTAAACAAATTTTCCTAATCTTTCTGTTCAAGCGCCATCTAC | 0.231
3 | GATGATTGTTCTCCCAGCTGATGAATTGGGAAACTCGAGTAAACAAATTTTCCTAATCTTTCTGTTCAAGCGCCATCTAC | 0.614
4 | GATGATTGTTCTCCCAGCTGATGAATTCAAATATTCGAGTAAACAAATTTTCCTAATCTTTCTGTTCAAGCGCCATCTAC | 0.431
5 | GATGATTGTTCTCCCAGCTGATGAATTTCATATATCGAGTAAACAAATTTTCCTAATCTTTCTGTTCAAGCGCCATCTAC | 0.715
6 | GATGATTGTTCTCCCAGCTGATGAATTCTATTGATCGAGTAAACAAATTTTCCTAATCTTTCTGTTCAAGCGCCATCTAC | 4.86
7 | GATGATTGTTCTCCCAGCTGATGAATTACAGTTTTCGAGTAAACAAATTTTCCTAATCTTTCTGTTCAAGCGCCATCTAC | 0.719
8 | GATGATTGTTCTCCCAGCTGATGAATTCGGAATTTCGAGTAAACAAATTTTCCTAATCTTTCTGTTCAAGCGCCATCTAC | 1.28
9 | GATGATTGTTCTCCCAGCTGATGAATTAGGTGCGTCGAGTAAACAAATTTTCCTAATCTTTCTGTTCAAGCGCCATCTAC | 1.02
10 | GATGATTGTTCTCCCAGCTGATGAATTATCCGCATCGAGTAAACAAATTTTCCTAATCTTTCTGTTCAAGCGCCATCTAC | 0.979
11 | GATGATTGTTCTCCCAGCTGATGAATTCCCCGCATCGAGTAAACAAATTTTCCTAATCTTTCTGTTCAAGCGCCATCTAC | 0.735
12 | GATGATTGTTCTCCCAGCTGATGAATTCCAGGCATCGAGTAAACAAATTTTCCTAATCTTTCTGTTCAAGCGCCATCTAC | 0.578
13 | GATGATTGTTCTCCCAGCTGATGAATTCCCAGTTTCGAGTAAACAAATTTTCCTAATCTTTCTGTTCAAGCGCCATCTAC | 0.263
14 | GATGATTGTTCTCCCAGCTGATGAATTAGTACCCTCGAGTAAACAAATTTTCCTAATCTTTCTGTTCAAGCGCCATCTAC | 0.735
15 | GATGATTGTTCTCCCAGCTGATGAATTTACGCTCTCGAGTAAACAAATTTTCCTAATCTTTCTGTTCAAGCGCCATCTAC | 0.7
16 | GATGATTGTTCTCCCAGCTGATGAATTTGTATGTTCGAGTAAACAAATTTTCCTAATCTTTCTGTTCAAGCGCCATCTAC | 6.63
17 | GATGATTGTTCTCCCAGCTGATGAATTGTCTCCGTCGAGTAAACAAATTTTCCTAATCTTTCTGTTCAAGCGCCATCTAC | 0.318
18 | GATGATTGTTCTCCCAGCTGATGAATTTTTCAAGTCGAGTAAACAAATTTTCCTAATCTTTCTGTTCAAGCGCCATCTAC | 0.207
19 | GATGATTGTTCTCCCAGCTGATGAATTTGAGGCCTCGAGTAAACAAATTTTCCTAATCTTTCTGTTCAAGCGCCATCTAC | 0.709
20 | GATGATTGTTCTCCCAGCTGATGAATTACACGACTCGAGTAAACAAATTTTCCTAATCTTTCTGTTCAAGCGCCATCTAC | 0.417

Row | Sequence | binding signal (RPM ratio (pull-down/input))
21 | GATGATTGTTCTCCCAGCTGATGAATTGAGGTGCTCGAGTAAACAAATTTTCCTAATCTTTCTGTTCAAGCGCCATCTAC | 0.488
22 | GATGATTGTTCTCCCAGCTGATGAATTAGTGTCCTCGAGTAAACAAATTTTCCTAATCTTTCTGTTCAAGCGCCATCTAC | 2.09
23 | GATGATTGTTCTCCCAGCTGATGAATTAGTGAGCTCGAGTAAACAAATTTTCCTAATCTTTCTGTTCAAGCGCCATCTAC | 0.85
24 | GATGATTGTTCTCCCAGCTGATGAATTTTATGTTTCGAGTAAACAAATTTTCCTAATCTTTCTGTTCAAGCGCCATCTAC | 2.25
25 | GATGATTGTTCTCCCAGCTGATGAATTCCGTACATCGAGTAAACAAATTTTCCTAATCTTTCTGTTCAAGCGCCATCTAC | 0.592
26 | GATGATTGTTCTCCCAGCTGATGAATTGGTTGGATCGAGTAAACAAATTTTCCTAATCTTTCTGTTCAAGCGCCATCTAC | 0.551
27 | GATGATTGTTCTCCCAGCTGATGAATTAACCGTCTCGAGTAAACAAATTTTCCTAATCTTTCTGTTCAAGCGCCATCTAC | 0.326
28 | GATGATTGTTCTCCCAGCTGATGAATTGCCGAGTTCGAGTAAACAAATTTTCCTAATCTTTCTGTTCAAGCGCCATCTAC | 0.608
29 | GATGATTGTTCTCCCAGCTGATGAATTAGATATGTCGAGTAAACAAATTTTCCTAATCTTTCTGTTCAAGCGCCATCTAC | 1.29
30 | GATGATTGTTCTCCCAGCTGATGAATTGTTCGCCTCGAGTAAACAAATTTTCCTAATCTTTCTGTTCAAGCGCCATCTAC | 0.653
31 | GATGATTGTTCTCCCAGCTGATGAATTTACTCATTCGAGTAAACAAATTTTCCTAATCTTTCTGTTCAAGCGCCATCTAC | 0.518
32 | GATGATTGTTCTCCCAGCTGATGAATTTGCATTCTCGAGTAAACAAATTTTCCTAATCTTTCTGTTCAAGCGCCATCTAC | 6.29
33 | GATGATTGTTCTCCCAGCTGATGAATTTCAAGCTTCGAGTAAACAAATTTTCCTAATCTTTCTGTTCAAGCGCCATCTAC | 0.258
34 | GATGATTGTTCTCCCAGCTGATGAATTTCGGGATTCGAGTAAACAAATTTTCCTAATCTTTCTGTTCAAGCGCCATCTAC | 0.36
35 | GATGATTGTTCTCCCAGCTGATGAATTTGGACCCTCGAGTAAACAAATTTTCCTAATCTTTCTGTTCAAGCGCCATCTAC | 0.478
36 | GATGATTGTTCTCCCAGCTGATGAATTAAGCACCTCGAGTAAACAAATTTTCCTAATCTTTCTGTTCAAGCGCCATCTAC | 0.986
37 | GATGATTGTTCTCCCAGCTGATGAATTAACTACATCGAGTAAACAAATTTTCCTAATCTTTCTGTTCAAGCGCCATCTAC | 0.461
38 | GATGATTGTTCTCCCAGCTGATGAATTAGCGATGTCGAGTAAACAAATTTTCCTAATCTTTCTGTTCAAGCGCCATCTAC | 0.61
39 | GATGATTGTTCTCCCAGCTGATGAATTACATAGATCGAGTAAACAAATTTTCCTAATCTTTCTGTTCAAGCGCCATCTAC | 0.393
40 | GATGATTGTTCTCCCAGCTGATGAATTCCTCCCATCGAGTAAACAAATTTTCCTAATCTTTCTGTTCAAGCGCCATCTAC | 0.273
